Experimental data taken from the supplement of paper PMC3334620.
The full ranking holds about 33,000 sequences; the median of “E-score (-0.5 to 0.5)” is about -0.012, and the highest 2% start at about 0.29. The list shows a part of the results.

Molecular target: T1, Ybr033w (UniProt P38073)
T1 sequence: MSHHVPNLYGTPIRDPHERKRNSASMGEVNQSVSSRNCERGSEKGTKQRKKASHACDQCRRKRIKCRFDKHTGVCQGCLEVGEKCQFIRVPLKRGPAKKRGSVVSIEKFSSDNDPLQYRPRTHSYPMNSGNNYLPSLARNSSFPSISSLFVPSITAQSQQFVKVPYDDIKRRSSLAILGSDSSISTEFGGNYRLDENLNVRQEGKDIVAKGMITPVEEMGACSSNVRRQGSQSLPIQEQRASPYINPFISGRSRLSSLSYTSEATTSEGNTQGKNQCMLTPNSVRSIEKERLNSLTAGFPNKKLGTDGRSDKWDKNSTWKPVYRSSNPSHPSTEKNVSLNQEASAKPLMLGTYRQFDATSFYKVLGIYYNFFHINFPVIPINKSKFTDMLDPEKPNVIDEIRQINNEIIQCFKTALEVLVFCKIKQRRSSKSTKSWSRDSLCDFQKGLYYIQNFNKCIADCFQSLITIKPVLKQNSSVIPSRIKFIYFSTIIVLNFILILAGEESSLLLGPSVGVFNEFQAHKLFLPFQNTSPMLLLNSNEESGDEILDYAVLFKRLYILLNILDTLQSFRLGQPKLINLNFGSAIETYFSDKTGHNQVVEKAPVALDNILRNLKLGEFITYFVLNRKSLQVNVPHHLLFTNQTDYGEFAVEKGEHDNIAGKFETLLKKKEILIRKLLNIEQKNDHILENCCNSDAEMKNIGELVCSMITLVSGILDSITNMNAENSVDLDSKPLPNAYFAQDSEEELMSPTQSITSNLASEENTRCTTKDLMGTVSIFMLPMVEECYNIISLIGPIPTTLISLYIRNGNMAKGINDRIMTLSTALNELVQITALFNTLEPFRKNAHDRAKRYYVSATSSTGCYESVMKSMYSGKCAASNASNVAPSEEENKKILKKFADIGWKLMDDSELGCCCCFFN
Assay: PBM E-score (8-mer binding enrichment) (E-score (-0.5 to 0.5)); higher = stronger / more preferred TF binding; most listed sequences are background and not binding sites
Details: protein concentration: 200 nM; construct: GST-full length
Summary of the method: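 Using PURExpress in vitro transcription/translation, GST-tagged yeast transcription factors were made in full-length or DNA-binding-domain form. These were applied at about 100-200 nM to double-stranded universal all-10-mer Agilent arrays, and bound protein was detected with fluorescent anti-GST. Scans were normalised with masliner before the Universal PBM Analysis Suite assigned E-scores to ungapped eight-base words pooled with their reverse complements.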

| Sequence | PBM E-score |
| --- | --- |
| CCCTTCCC | -0.182 |
| GGGCGAGA | -0.0995 |
| TCAATTCA | 0.162 |
| GCCTCCTA | -0.182 |
| CCGCGAGG | -0.155 |
| CTCTTCGA | 0.0693 |
| AGCGGACG | -0.0881 |
| AGTCTCCC | -0.225 |
| GTACGGTA | 0.193 |
| GGCAGGAA | -0.216 |
| ATCCGAAA | 0.203 |
| ACCAAGAC | 0.0883 |
| GAGGCGGC | -0.144 |
| ACTGGTGC | -0.0655 |
| GTAGGGAC | -0.195 |
| TAGCCTAA | 0.0539 |
| CATATGAG | -0.00619 |
| AGTGGTCG | -0.159 |
| TAGTTCAA | 0.105 |
| CCTATACG | -0.0637 |
| GGAGTCCC | -0.366 |
| AACTCACG | -0.0165 |
| TAGTGAGA | 0.0389 |
| AAAAAATG | 0.248 |
| GTTATAGA | 0.13 |

| Sequence | PBM E-score |
| --- | --- |
| GGGAAGGA | -0.173 |
| CGGCGGTA | 0.0302 |
| CCAACGGC | -0.196 |
| ATCTAACA | 0.18 |
| ATGGAGCG | 0.0157 |
| CCCTATAC | -0.128 |
| CCCGGTGC | -0.314 |
| CGGAAGCA | 0.173 |
| ATCGGACA | -0.0956 |
| ACCCCAAG | -0.132 |
| ATTGGCGG | -0.113 |
| GCGGCTGA | -0.265 |
| TCCGCAAA | 0.132 |
| CGGATTAG | -0.0597 |
| AAGATCTA | -0.0135 |
| AACGTCCA | 0.0814 |
| GACCTTAC | -0.0749 |
| CGTGAATA | 0.0271 |
| CCTGTTAG | 0.0468 |
| ACTCGTAA | 0.212 |
| ATCTGGCG | 0.0347 |
| CCAACAGC | -0.0246 |
| GAGGCGGA | -0.102 |
| AAGTACCC | -0.101 |
| CATATATC | 0.117 |

| Sequence | PBM E-score |
| --- | --- |
| AGGTGTAA | 0.186 |
| CGCTGGTC | -0.314 |
| ATCTCTGG | -0.0166 |
| CCAGACAG | -0.0789 |
| TGGTGACA | 0.106 |
| ATCGCGAT | 0.0181 |
| ACTCCCCT | -0.002 |
| CGCCACAA | 0.0276 |
| GATCCTAC | 0.0816 |
| CAAAGTGC | -0.0492 |
| CTGTGGCA | -0.0619 |
| TAGATCCA | 0.128 |
| GGGGCCGA | -0.354 |
| ACTATCAC | 0.0981 |
| AAGGTACT | 0.129 |
| TCGCCACA | -0.0342 |
| CGTGATTC | -0.164 |
| ACGGGGGC | -0.406 |
| CCTTTGAA | -0.0418 |
| CATAGTAA | 0.257 |
| ATCCAACG | -0.0473 |
| AATGCATT | 0.31 |
| ACCCAGTG | -0.27 |
| AAGGAAAC | 0.0412 |
| GAATCCAA | 0.156 |

| Sequence | PBM E-score |
| --- | --- |
| GACGGGAC | -0.287 |
| ACACACTA | 0.156 |
| CGGAGAGA | 0.0441 |
| AGGCGAAA | -0.0543 |
| TAGCGATA | 0.049 |
| CAGGATGG | 0.0328 |
| CAGGTTAC | -0.143 |
| AACCATGA | 0.234 |
| ACATTGGC | -0.0146 |
| CATCTTCC | 0.0897 |
| ACCGTCGT | 0.0541 |
| CACCGGAC | -0.115 |
| GGGCGAAC | 0.0259 |
| CGGGCGAA | -0.0653 |
| GTCGGTTA | 0.0246 |
| AAGCGAAC | -0.0444 |
| ATACGACC | -0.111 |
| CGCGCTCA | -0.0589 |
| CTATTTCA | 0.15 |
| CTGGGCTA | -0.212 |
| AAATCATA | 0.254 |
| AGCGACGG | -0.117 |
| ACGAGCAG | -0.0359 |
| CGCCAGGA | -0.00607 |
| CGCCAGCG | -0.122 |

| Sequence | PBM E-score |
| --- | --- |
| AAGGTTTA | 0.0965 |
| ACATGATC | 0.122 |
| TTGTGAAA | 0.097 |
| GAATTGCC | -0.0185 |
| ATATTCCC | 0.329 |
| ATCAACTA | 0.25 |
| GCAAAGGA | 0.118 |
| ACATACCC | 0.107 |
| CAAGAGGA | 0.0563 |
| GACCAACC | -0.227 |
| AAAGCAGA | 0.131 |
| ATCTTCTA | 0.142 |
| AAGGGTCA | -0.229 |
| CACCCTGC | -0.128 |
| ACGGAAGC | -0.187 |
| TACCTCAA | 0.0553 |
| GCATTCCC | -0.0728 |
| CCGGGAAA | 0.0693 |
| AAAGCATG | -0.0195 |
| ATTATGCA | 0.084 |
| GGGAGGGA | -0.0948 |
| GATTTGGA | 0.0122 |
| CATAAATC | 0.146 |
| GAGTAACA | 0.162 |
| ATGTCCGA | -0.124 |

| Sequence | PBM E-score |
| --- | --- |
| AATGGGGC | -0.212 |
| AGTGGACC | -0.195 |
| CAGGGATG | -0.053 |
| CTGTAACC | 0.104 |
| CATTAAAC | 0.13 |
| CGATTTAA | 0.185 |
| GCTCTCCC | -0.357 |
| AAAATATT | 0.364 |
| ACTAGGCG | 0.181 |
| CGAATCGA | 0.174 |
| TGCAAACA | -0.0192 |
| ATCCCGCG | 0.122 |
| CGTTGCTC | -0.229 |
| GTTGTAGA | 0.00414 |
| AAGCAGAT | 0.0856 |
| CGTGTCTC | -0.11 |
| ACGATACC | 0.076 |
| ATGTCACC | 0.0486 |
| TGCGATAA | 0.255 |
| CGTACACA | 0.11 |
| ATGTAGAA | 0.104 |
| CACAGTTA | 0.142 |
| CAATCAAG | -0.0201 |
| AAATCGCC | -0.0689 |
| CGAAAAGA | 0.258 |

| Sequence | PBM E-score |
| --- | --- |
| CTCGTGGA | -0.00292 |
| GAGCGTGA | -0.279 |
| ATAAGGCA | 0.0348 |
| CGTACGCC | -0.159 |
| GGGAGCTA | -0.29 |
| ATGAGTTG | 0.0869 |
| AAAAATTA | 0.302 |
| CTGTCACA | -0.202 |
| GAAAGCCA | -0.136 |
| ATGCGTGC | 0.0457 |
| GAATGTCC | 0.0427 |
| TAGCTGGA | -0.149 |
| AACTTTAA | 0.183 |
| ATGAAGAC | 0.00879 |
| AAGGATCA | 0.207 |
| TGAGCTCA | 0.0873 |
| AATGTCCG | -0.0271 |
| AGACTGGA | 0.0391 |
| CACATGTG | -0.0982 |
| CATCAACA | 0.115 |
| AGTTACTG | 0.0336 |
| CCCTCAGG | -0.05 |
